pIC50: −log10 of the molar value. The IC50 comes from the fitted curve, where viability falls to half of the control; a fit beyond the top or the lowest dose is shown as a bound at that dose. AUC is the area under the same curve over the 256-fold range up to the top dose, as a fraction; values near 1 show little effect. The top dose, if marked as inferred, was derived from the fitted curves, not read from the paper.
Each cell line was assayed with Cc1ccc(-c2c(C(=O)CF)n(CCCO)c3ncnc(N)c23)cc1 [FMK] (assay: Viability of human cancer cell lines after 72 h of drug (GDSC screen)). Conditions: top dose inferred.
Method: (§1)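 Human cancer cell lines in 384-well plates, medium with 10% serum, drug for 72 h over a 256-fold dose range (nine 2-fold or five 4-fold steps up to the top dose). Adherent lines were fixed and stained with the nucleic acid dye Syto60, suspension lines read with resazurin; signal relative to control wells, capped at 0 and 100%. One two-parameter sigmoid per drug and line, fitted in a mixed model over all curves with the slope shared within a line.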

| Cell Line | AUC | pIC50 |
| --- | --- | --- |
| 8-MG-BA (glioma, adherent, top dose 20 µM) | 0.973 | < 4.70 |
| 42-MG-BA (glioma, adherent, top dose 20 µM) | 0.974 | < 4.70 |
| 201T (lung adenocarcinoma, adherent, top dose 20 µM) | 0.958 | < 4.70 |
| 451Lu (melanoma, adherent, top dose 20 µM) | 0.988 | < 4.70 |
| 639-V (bladder, adherent, top dose 20 µM) | 0.991 | < 4.70 |
| 647-V (bladder, adherent, top dose 20 µM) | 0.986 | < 4.70 |
| 697 (lymphoblastic leukaemia, suspension, top dose 20 µM) | 0.956 | < 4.70 |
| 769-P (kidney, adherent, top dose 20 µM) | 0.955 | < 4.70 |
| 786-0 (kidney, adherent, top dose 20 µM) | 0.968 | < 4.70 |
| 5637 (bladder, adherent, top dose 20 µM) | 0.989 | < 4.70 |
| 8505C (thyroid, adherent, top dose 20 µM) | 0.978 | < 4.70 |
| 23132-87 (stomach, adherent, top dose 20 µM) | 0.986 | < 4.70 |
| A3-KAW (B-cell lymphoma, suspension, top dose 20 µM) | 0.967 | < 4.70 |
| A4-Fuk (B-cell lymphoma, suspension, top dose 20 µM) | 0.969 | < 4.70 |
| A101D (melanoma, adherent, top dose 20 µM) | 0.981 | < 4.70 |
| A172 (glioma, adherent, top dose 20 µM) | 0.979 | < 4.70 |
| A204 (rhabdomyosarcoma, adherent, top dose 20 µM) | 0.971 | < 4.70 |
| A253 (head and neck, adherent, top dose 20 µM) | 0.982 | < 4.70 |
| A375 (melanoma, adherent, top dose 20 µM) | 0.952 | < 4.70 |
| A388 (skin, adherent, top dose 20 µM) | 0.974 | < 4.70 |
| A427 (non-small cell lung carcinoma, adherent, top dose 20 µM) | 0.983 | < 4.70 |
| A431 (skin, adherent, top dose 20 µM) | 0.959 | < 4.70 |
| A673 (rhabdomyosarcoma, adherent, top dose 20 µM) | 0.99 | < 4.70 |
| A704 (kidney, adherent, top dose 20 µM) | 0.989 | < 4.70 |
| A2058 (melanoma, adherent, top dose 20 µM) | 0.981 | < 4.70 |
| A2780 (ovary, semi-adherent, top dose 20 µM) | 0.95 | < 4.70 |

What follows are cell lines tested with N.N.[Cl][Pt][Cl] [Cisplatin] in the same assay as above. Conditions: top dose inferred.
Method: as §1

| Cell Line | AUC | pIC50 |
| --- | --- | --- |
| T84 (large intestine, adherent, top dose 10 µM) | 0.98 | < 5.00 |
| T98G (glioma, adherent, top dose 10 µM) | 0.961 | < 5.00 |
| T-T (oesophagus, adherent, top dose 10 µM) | 0.938 | < 5.00 |
| TC-YIK (cervix, suspension, top dose 10 µM) | 0.869 | 5.14 |
| TE-1 (oesophagus, adherent, top dose 10 µM) | 0.912 | < 5.00 |
| TE-4 (oesophagus, adherent, top dose 10 µM) | 0.936 | < 5.00 |
| TE-5 (oesophagus, adherent, top dose 10 µM) | 0.908 | < 5.00 |
| TE-6 (oesophagus, adherent, top dose 10 µM) | 0.941 | < 5.00 |
| TE-8 (oesophagus, adherent, top dose 10 µM) | 0.867 | < 5.00 |
| TE-9 (oesophagus, adherent, top dose 10 µM) | 0.914 | < 5.00 |
| TE-11 (oesophagus, adherent, top dose 10 µM) | 0.943 | < 5.00 |
| TE-12 (oesophagus, suspension, top dose 10 µM) | 0.848 | < 5.00 |
| TE-15 (oesophagus, suspension, top dose 10 µM) | 0.937 | < 5.00 |
| TGBC1TKB (biliary tract, adherent, top dose 10 µM) | 0.949 | < 5.00 |
| TGBC11TKB (stomach, adherent, top dose 10 µM) | 0.975 | < 5.00 |
| TGW (neuroblastoma, adherent, top dose 10 µM) | 0.916 | < 5.00 |
| TK10 (kidney, adherent, top dose 10 µM) | 0.919 | < 5.00 |
| TK (B-cell lymphoma, suspension, top dose 10 µM) | 0.958 | < 5.00 |
| TMK-1 (stomach, adherent, top dose 10 µM) | 0.869 | < 5.00 |
| TOV-21G (ovary, adherent, top dose 10 µM) | 0.573 | 6.00 |

| Cell Line | AUC | pIC50 |
| --- | --- | --- |
| TOV-112D (ovary, adherent, top dose 10 µM) | 0.899 | < 5.00 |
| TT2609-C02 (thyroid, adherent, top dose 10 µM) | 0.917 | < 5.00 |
| TT (thyroid, adherent, top dose 10 µM) | 0.902 | < 5.00 |
| TUR (B-cell lymphoma, suspension, top dose 10 µM) | 0.956 | < 5.00 |
| TYK-nu (ovary, adherent, top dose 10 µM) | 0.85 | 5.08 |
| U251 (glioma, adherent, top dose 10 µM) | 0.881 | 5.02 |
| U-87-MG (glioma, adherent, top dose 10 µM) | 0.912 | < 5.00 |
| U-118-MG (glioma, adherent, top dose 10 µM) | 0.89 | < 5.00 |
| U-266 (myeloma, semi-adherent, top dose 10 µM) | 0.954 | < 5.00 |
| U-698-M (B-cell leukaemia, suspension, top dose 10 µM) | 0.924 | < 5.00 |
| UACC-62 (melanoma, adherent, top dose 10 µM) | 0.89 | < 5.00 |
| UACC-257 (melanoma, adherent, top dose 10 µM) | 0.941 | < 5.00 |
| UACC-893 (breast, adherent, top dose 10 µM) | 0.908 | < 5.00 |
| UM-UC-3 (bladder, adherent, top dose 10 µM) | 0.833 | 5.23 |
| UMC-11 (lung carcinoid, adherent, top dose 10 µM) | 0.991 | < 5.00 |
| UWB1.289 (ovary, adherent, top dose 10 µM) | 0.905 | < 5.00 |
| VA-ES-BJ (soft tissue, adherent, top dose 10 µM) | 0.718 | 5.57 |
| VAL (B-cell lymphoma, suspension, top dose 10 µM) | 0.932 | < 5.00 |
| VCaP (prostate, adherent, top dose 10 µM) | 0.987 | < 5.00 |
| VMRC-LCD (lung adenocarcinoma, adherent, top dose 10 µM) | 0.972 | < 5.00 |

| Cell Line | AUC | pIC50 |
| --- | --- | --- |
| VMRC-MELG (melanoma, adherent, top dose 10 µM) | 0.985 | < 5.00 |
| VMRC-RCW (kidney, adherent, top dose 10 µM) | 0.949 | < 5.00 |
| VMRC-RCZ (kidney, adherent, top dose 10 µM) | 0.976 | < 5.00 |
| WIL2-NS (lymphoid neoplasm, suspension, top dose 10 µM) | 0.908 | 5.03 |
| WM35 (melanoma, adherent, top dose 10 µM) | 0.847 | 5.13 |
| WM278 (melanoma, adherent, top dose 10 µM) | 0.899 | < 5.00 |
| WM793B (melanoma, adherent, top dose 10 µM) | 0.884 | < 5.00 |
| WM1552C (melanoma, adherent, top dose 10 µM) | 0.886 | < 5.00 |
| WM-115 (melanoma, adherent, top dose 10 µM) | 0.883 | < 5.00 |
| WSU-DLCL2 (B-cell lymphoma, suspension, top dose 10 µM) | 0.976 | < 5.00 |
| WSU-NHL (lymphoid neoplasm, suspension, top dose 10 µM) | 0.921 | < 5.00 |
| YAPC (pancreas, adherent, top dose 10 µM) | 0.985 | < 5.00 |
| YH-13 (glioma, adherent, top dose 10 µM) | 0.884 | < 5.00 |
| YKG-1 (glioma, adherent, top dose 10 µM) | 0.829 | 5.20 |
| YT (lymphoid neoplasm, suspension, top dose 10 µM) | 0.988 | < 5.00 |
| ZR-75-30 (breast, adherent, top dose 10 µM) | 0.964 | < 5.00 |
| huH-1 (liver, adherent, top dose 10 µM) | 0.819 | 5.12 |
| no-10 (glioma, adherent, top dose 10 µM) | 0.942 | < 5.00 |
| no-11 (glioma, adherent, top dose 10 µM) | 0.857 | < 5.00 |
